Measured values published in the supplement of paper PMC12645437, “Orthogonal IMiD-Degron Pairs Induce Selective Protein Degradation in Cells” (ACS Chemical Biology, 2025).
The other results are listed elsewhere or left out.

B1: Q9UKT9 (peptide)
chain: FLCEICGREFTQKGNLLRHIKL
B2: Q9UKT9 (peptide)
chain: FECEICGRGFTQKGNLLRHIKL
B3: Q9UKT9 (peptide)
chain: FSCEICGHIFTQKGNLLRHIKL
B4: Q9UKT9 (peptide)
chain: FRCNQCGRTFTQKGNLLRHIKL
B5: Q9UKT9 (peptide)
chain: FYCNQCGHKFTQKGNLLRHIKL
B6: Q9UKT9 (peptide)
chain: FECDQCGAPFTQKGNLLRHIKL
B7: Q9UKT9 (peptide)
chain: FSCPQCGATFTQKGNLLRHIKL
B8: Q9UKT9 (peptide)
chain: FVCDVCGASFTQKGNLLRHIKL
B9: Q9UKT9 (peptide)
chain: FHCEICGASFTQKGNLLRHIKL
B10: Q9UKT9 (peptide)
chain: FDCNVCGANFTQKGNLLRHIKL
B11: Q9UKT9 (peptide)
chain: FLCDVCGAPFTQKGNLLRHIKL
B12: Q9UKT9 (peptide)
chain: FACDICGAYFTQKGNLLRHIKL
B13: Q9UKT9 (peptide)
chain: FWCDICGACFTQKGNLLRHIKL
B14: Q9UKT9 (peptide)
chain: FRCEICGHFFTQKGNLLRHIKL
B15: Q9UKT9 (peptide)
chain: FMCPVCGAPFTQKGNLLRHIKL
B16: Q9UKT9 (peptide)
chain: FNCEICGHNFTQKGNLLRHIKL
B17: Q9UKT9 (peptide)
chain: FQCEVCGASFTQKGNLLRHIKL
B18: Q9UKT9 (peptide)
chain: FFCNQCGHCFTQKGNLLRHIKL
B19: Q9UKT9 (peptide)
chain: FRCDICGAVFTQKGNLLRHIKL
B20: Q9UKT9 (peptide)
chain: FKCDVCGAYFTQKGNLLRHIKL
B21: Q9UKT9 (peptide)
chain: FSCEICGATFTQKGNLLRHIKL
B22: Q9UKT9 (peptide)
chain: FKCNQCGRKFTQKGNLLRHIKL
B23: Q9UKT9 (peptide)
chain: FLCEICGAIFTQKGNLLRHIKL
B24: Q9UKT9 (peptide)
chain: FMCSVCGHVFTQKGNLLRHIKL
B25: Q9UKT9 (peptide)
chain: FHCPQCGACFTQKGNLLRHIKL
B26: Q9UKT9 (peptide)
chain: FDCPQCGALFTQKGNLLRHIKL
B27: Q9UKT9 (peptide)
chain: FQCNVCGAEFTQKGNLLRHIKL
B28: Q9UKT9 (peptide)
chain: LQCEICGFYCTQKGNLLRHIKL
B29: Q9UKT9 (peptide)
chain: FACPICGRVFTQKGNLLRHIKL
B30: Q9UKT9 (peptide)
chain: FQCNVCGAHFTQKGNLLRHIKL
B31: Q9UKT9 (peptide)
chain: FRCSVCGHCFTQKGNLLRHIKL
B32: Q9UKT9 (peptide)
chain: FYCEICGRIFTQKGNLLRHIKL

molecular target: no compound (DMSO); assay: log2 fold change of degron read counts, EGFP-low vs EGFP+ sorted cells; higher = lower degron-EGFP level without compound (poor expression or instability); details: compound: DMSO control; 18 h
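Further: jurkat cells carrying a lentiviral library of mutant zinc finger degrons fused to EGFP plus mCherry, mCherry+ cells FACS sorted, degron abundance counted by next-generation sequencing.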

Sequence | log2 fold change of degron read counts
B1 | -0.825
B2 | -2.16
B3 | -1.41
B4 | -0.156
B5 | 0.372
B6 | -2.27
B7 | -1.02
B8 | -1.92
B9 | -2.72
B10 | -1.44
B11 | -0.934
B12 | -0.553
B13 | -0.0705
B14 | -0.484
B15 | 0.492
B16 | -1.44

Sequence | log2 fold change of degron read counts
B17 | -1.5
B18 | 0.378
B19 | -0.123
B20 | -0.82
B21 | -0.991
B22 | -2.33
B23 | -0.119
B24 | -0.158
B25 | 0.0405
B26 | -0.132
B27 | -1.84
B28 | 0.484
B29 | 0.569
B30 | -0.344
B31 | -0.363
B32 | 0.309
